Reference: PubChem BioAssay AID1963576 (National Center for Advancing Translational Sciences (NCATS), 2024)
The whole screen tested about 46,000 compounds, of which about 60 (0.1%) were called active. Inconclusive results (about 3%) are left out. The call rests on the fitted dose curve; in most records, active means well fitted inhibition curve with a large enough effect; inconclusive means small, poorly fitted or top-dose-only effect; inactive means no such curve, though single readings can be large or run the other way. This is one part of the list.

test: Primary qHTS assay for Inhibitors of ovarian cancer metastasis using an organotypic tumor microenvironment (TME) model.; further: nearly all actives have a fitted effect of over 65% in size;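 on activity change, negative = inhibition: plate controls were DMSO wells for no effect and tomatine positive control wells for full effect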; settings: SKOV3ip1-GFP adhesion/invasion on 3D omental model, fluorescence; series mostly up to 45.8 µM; activity change, negative = inhibition: at the top concentration
Summary of the method: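 Adhesion/invasion was scored as fixed GFP-labeled SKOV3ip1 cell counts (488/509 nm), normalized to DMSO and tomatine controls. Cancer cells in serum-free medium, with four compound doses (0.36-46 umol/L), sat 2 hr at RT then 16 hr at 37 C on a 48 hr fibroblast/mesothelial/ECM culture.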

outcome, inactive:
CCN(CC)CCNC(=O)c1ccc2nc(CCc3ccccc3)oc2c1
COc1ccccc1NC(=O)C1CCN(C(=O)c2sc3nc[nH]c(=O)c3c2C)CC1
COc1ccc(N2CC(NC(=O)c3ccco3)CC2=O)cc1 (centres undefined)
Cc1cc2oc3c(c(=O)c2cc1C)C1(C(=O)N(C)c2ccccc21)N(CCO)C3=O (centres undefined)
CCc1cccc(C)c1NC(=O)Cn1c(=O)cc(C)c2c(C)nn(-c3cccc(F)c3)c21
COc1ccc(CNC(=O)Cn2ncc3c([nH]c4ccccc43)c2=O)cc1
CCOc1ccc2oc(=O)cc(CN3CCN(c4cc(C)ccc4C)CC3)c2c1
Cc1cccc(N2CCN(C(=O)c3cccn4c(=O)c5cc(Cl)ccc5nc34)CC2C)c1 (centres undefined)
COc1cc(OC)c(NC(=O)C2=C(C)C(=O)OC23CCCCCC3)cc1Cl
O=C(NCCc1ccc(Cl)cc1)C1CCN(c2ncnc3c2nc2n3CCCCC2)CC1
CN(Cc1ccco1)C(=O)c1ccc2c(c1)N(Cc1ccccc1F)C(=O)c1ccccc1S2
COc1ccc2c(c1)c1c(c(=O)n(-c3ccc(F)c(Cl)c3)c(=O)n1CC(=O)N1CCCC1)n2C
CC(=O)N1CCc2c(sc3c2c(=O)n(-c2ccccc2)c(=O)n3CC(=O)Nc2ccccc2)C1
O=C(O)c1ccc(CNCc2ccc(Cl)cc2)s1
CC1=C(C(=O)Nc2ccccc2)C(c2ccncc2)n2nc(SCc3ccccc3Cl)nc2N1 (centres undefined)
O=C(Cn1c(=O)ccc2cc(S(=O)(=O)N3CCCC3)ccc21)NCc1ccc(Cl)cc1

Activity change, negative = inhibition, inactive:
O=C(Nc1ccccc1Br)C(Cc1ccccc1)NS(=O)(=O)c1cccc2nsnc12 (centres undefined) -16.4%
Nc1cc(=O)nc(SCC(=O)Nc2ccc(F)cc2)n1CCc1ccccc1 -24.5%
CCn1c(CNC(=O)c2ccc(OC)cc2)nnc1SCC(=O)Nc1ccc(C)cc1 4.08%
Cc1nn(-c2ccc(N3CCCC3)nn2)c(C)c1CCC(=O)Nc1ccc(F)cc1F -8.52%
Cc1cccc(CCNC(=O)CCc2c(C)nc3c4c(C)cc(C)nc4nn3c2C)c1 -1.61%
Cc1c(C(=O)Nc2ccccc2F)sc2ncnc(N(C)C3CCCCC3)c12 -1.91%
O=C(NCc1ccc(F)cc1)c1ccc(Nc2nc3ccccc3n3nnnc23)cc1 -14.7%
COc1ccccc1N1CCN(c2cc(C)nc3nc(-c4ccc(C)cc4)nn23)CC1 20.5%
CC(=O)N1c2nc(C(C)C)nn2C2(CCCCC2)[C@@H]2CCCC[C@@H]21 14.7%
CC(C)CN(CCCNC(=O)c1cc(=O)[nH]c2ccc(S(=O)(=O)N3CCCCCC3)cc12)CC(C)C -8.78%
CC(C)C[C@H](NC(=O)CNC(=O)c1cc(Cl)ccc1Cl)B(O)O -8.7%
Cc1nc2nc(NC(=O)c3ccccc3F)[nH]n2c(=O)c1Cl 5.94%
O=C(Nc1ccc2oc(-c3ccc(O)c(Br)c3)nc2c1)c1cc2ccccc2o1 -3.87%
Cc1ccn2c(Nc3ccc(C(C)C)cc3)c(-c3cccs3)nc2c1 -3.25%
CCn1c2c(c(=O)n3ncc(C(=O)Nc4cc(Cl)ccc4C)c13)CN(Cc1ccc(OC)cc1)CC2 -1.79%
COc1ccc(C2C=C(c3cccc(OC)c3)Nc3c(C(=O)Nc4ccccc4)cnn32)cc1 (centres undefined) 3.81%
O=C(CSc1nnc(-c2cccc(Cl)c2)o1)N1CCc2ccccc21 9.11%
Cc1ccc(Cl)cc1NC(=O)CCC(=O)N1CC(C)Sc2ccccc21 (centres undefined) -8.05%
COc1ccccc1-c1nnc(SCC(=O)Nc2ccccc2F)o1 -8.91%
CC(=O)N1c2ccc(S(=O)(=O)NCC3CCC(C(=O)Nc4ccc(C)cc4)CC3)cc2CC1C (centres undefined) -2.52%
Cc1ccc(-n2c(=O)c3c4c(sc3n(CC(=O)c3ccc(Cl)cc3)c2=O)CCC4)cc1C 7.63%
CCOc1ccc(NC(=O)c2cc(S(=O)(=O)N3CCCCCC3)cn2C)cc1 -9.04%
Cc1c2cnn(-c3ccccc3)c(=O)c2c(C)n1CC(=O)NCCc1ccc(Cl)cc1 6.56%
COC(=O)c1cc2sc(C)cc2n1CC(=O)Nc1ccc(C)c(C)c1 -3.24%
COc1cc(CNC(=O)c2ccc3c(c2)N(C)C(=O)C2CCCCN32)cc(OC)c1OC (centres undefined) -1.32%
CCOC(=O)c1ccc(NC(=O)Cn2c(=O)n(-c3ccc(C)cc3)c(=O)c3c2cnn3C)cc1 2.61%
Cc1ccccc1NC(=O)Cn1c(SCC(=O)Nc2ccc(F)cc2)nc2ccccc21 -29.6%
Cc1c(-c2nc(-c3ccc4c(c3)OCO4)no2)nnn1-c1ccc(Br)cc1F 1.51%
Cc1ccc2nc(Nc3cccc(Cl)c3C)c(-n3nc(C)cc3C)nc2c1 -4.87%
CC(C)CN(C(=O)c1cccc(S(=O)(=O)N2CCCCC2)c1)C1CCS(=O)(=O)C1 (centres undefined) -6.75%
CCOC(=O)c1ccc(N2CCN(c3cccc(OC)c3)CC2)c(NC(=O)Nc2ccc(OCC)cc2)c1 13.4%
CCOC(=O)c1c(NC(=O)c2nc(SCC)ncc2Cl)sc(C(C)=O)c1C -9.61%
Cc1ccc(CNC(=O)Cc2c(C)c3cc4c(C)coc4cc3oc2=O)cc1 0.543%
O=C(COc1ccccc1Cl)OCc1cc(=O)n2nc(-c3cccs3)sc2n1 2.23%
O=[N+]([O-])c1cc(-c2nc(-c3ccccc3)no2)ccc1N1CCCCC1 -10.9%
Cc1ccc(NC(=O)C2CCCN(c3nnc(C)c4c(C)n(-c5ccccc5)nc34)C2)c(Cl)c1 (centres undefined) 2.35%
CCC(=O)N1CCc2cc(Br)cc(S(=O)(=O)CCC(=O)N3CCN(c4cccc(C(F)(F)F)c4)CC3)c21 -0.0768%
COc1ccc(C(=O)OCc2cc(=O)n3nc(-c4cccs4)sc3n2)cc1 -1.07%
CCC(Cn1nnc2ccccc2c1=O)NC(=O)Nc1cccc(C)c1C (centres undefined) -8.68%
Cc1ccc(S(=O)(=O)Cc2ccc(C(=O)N3CCN(c4cccc(C)c4C)CC3)o2)cc1 11.2%
O=C(Cn1c(=O)n(Cc2ccco2)c(=O)c2ccccc21)Nc1ccc(Cl)cc1Cl -10.7%
CCOC(=O)c1cc(S(=O)(=O)NCc2ccccc2)[nH]n1 -33.7%

Potency, inactive:
COc1ccc([C@@H]2CC(=O)c3c(O)cc(O[C@@H]4O[C@H](CO[C@@H]5O[C@@H](C)[C@H](O)[C@@H](O)[C@@H]5O)[C@@H](O)[C@H](O)[C@@H]4O)cc3O2)cc1O
